Laboratory results published in PubChem BioAssay AID686979 (National Center for Advancing Translational Sciences (NCATS), 2013).
Screen size: about 420,000 compounds; about 50,000 (12%) were called active. Inconclusive results, whose numbers are uncertain, are shown with a selection of clear calls. The call rests on the fitted dose curve; in most records, active means well fitted inhibition curve with a large enough effect; inconclusive means small, poorly fitted or top-dose-only effect; inactive means flat fitted curve, though single readings scatter. Potencies of inconclusive entries are left out as doubtful fits.

assay: qHTS for Inhibitors of human tyrosyl-DNA phosphodiesterase 1 (TDP1): qHTS in cells in presence of CPT; details: chicken DT40 Tdp1-/-;hTDP1 cells + 20 nM CPT, ATP luminescence, 48 h; series mostly up to 46.2 µM; further: nearly all actives have a fitted effect of over 55% in size
Procedure, shortened: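 Cell growth measured by CellTiter-Glo luminescence after a minimum 48 h, 37 C compound exposure with 20 nM CPT in Tdp1-knockout DT40 cells stably expressing hTDP1, seeded 400/well; qHTS titration format.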
Potency means the concentration at half of the fitted maximal effect; tags describe the fitted curve by direction and shape.

Row | SMILES | Potency
1 | CC(=O)c1ccc(NC(=O)CCNS(=O)(=O)c2ccccc2F)cc1 | inactive
2 | CC(C)(C)C1CCC(N2CCN(c3ccccc3)CC2)CC1 (stereo unspecified) | inconclusive [inhibitor, single point]
3 | O=[N+]([O-])c1cc(C(F)(F)F)ccc1NCCCCNS(=O)(=O)c1ccc2ccccc2c1 | active: 20.6 µM
4 | Cc1ccc(C)c(S(=O)(=O)N2CCN(C(=O)CCCc3c[nH]c4ccccc34)CC2)c1 | inconclusive [inhibitor, single point]
5 | O=c1oc2cc(OCCO)ccc2c2c1CCCC2 | inactive
6 | O=C(O)C1C2CCC(O2)C1C(=O)NCc1ccc(Cl)cc1 (stereo unspecified) | inactive
7 | Cc1c(NC(=S)N/N=C\c2ccccc2O)c(=O)n(-c2ccccc2)n1C | inconclusive [inhibitor, single point]
8 | Cc1ccc(S(=O)(=O)Nc2cc(=O)[nH]c3c2CCC3)cc1 | inactive
9 | Oc1csc(Cc2nc(-c3ccccc3F)cs2)n1 | inconclusive [inhibitor, single point]
10 | COc1ccc(-n2nc3c(c2NC(=O)C2CC(=O)N(c4ccccc4)C2)CS(=O)(=O)C3)cc1 (stereo unspecified) | inactive
11 | CCCc1cc(=O)oc2c3c(cc(OCC(=O)NCc4ccccn4)c12)OC(C)(C)CC3 | active: 23.1 µM
12 | C[C@H](CO)N1C[C@H](C)[C@@H](CN(C)S(=O)(=O)c2ccccc2C#N)OCc2cnnn2CCCC1=O | inactive
13 | Oc1ccc(/C=N/N2CCN(c3ccccn3)CC2)cc1 | inconclusive [inhibitor, single point]
14 | COc1ccc(/C=N/NC(=O)c2c(C)nc3ccc(Cl)cn23)cc1OC | active: 11.6 µM
15 | COc1ccc(CNCc2ccc(C)cc2)c(OC)c1 | inconclusive [inhibitor, single point]
16 | COc1ccc(C(=O)CCNc2cccc(Cl)c2)cc1 | inconclusive [inhibitor, single point]
17 | Cc1ccc(S(=O)(=O)N(Cc2cccc(Cl)c2)C(=O)N2CCN(C)CC2)cc1 | inactive
18 | C[C@H]1CCC(=O)N(CCSc2ccc(Br)cc2)CC1 | active: 15.8 µM
19 | Cc1noc(C)c1S(=O)(=O)N1CCC(C(=O)NCCC2=CCCCC2)CC1 | inconclusive [inhibitor, partial curve]
20 | COc1ccc(-c2cc(=O)c3c(O)cc(O)c(-c4cc(-c5cc(=O)c6c(O)cc(O)cc6o5)ccc4OC)c3o2)cc1 | inconclusive [inhibitor, partial curve, poor fit]
21 | CNc1c(NS(=O)(=O)c2ccc(OC)cc2)c(=O)oc2ccccc12 | inactive
